Test results reported in the supplement of paper PMC8728848.
The list shows a part of the results.

What was measured:
Assay in all cases: glycan array binding signal (z-score within array); higher = stronger binding
Conditions in all cases: glycan notation: IUPAC condensed, linker removed
Glc(a1-4)Glc = molecular target: Glc(a1-4)Glc
Procedure, shortened: (§1)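 Glycan array data were curated from 3228 arrays in the Consortium for Functional Glycomics database and kept only where the protein sequence was available. Glycan names were converted to IUPAC-condensed notation, and columns mapping to the same glycan were averaged. The binding signal is a within-array Z-score, averaged across arrays of the same protein sequence at different concentrations or buffers and across linkers. Negative Z-scores can be read as non-binding.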

[1] = molecular target: Glc(a1-4)Glc(a1-4)Glc(a1-4)Glc
Procedure, shortened: as §1

Glc(a1-6)Glc(a1-6)Glc = molecular target: Glc(a1-6)Glc(a1-6)Glc
Procedure, shortened: as §1

[2] = molecular target: Glc(a1-6)Glc(a1-6)Glc(a1-6)Glc
Procedure, shortened: as §1

Glc(b1-4)Glc = molecular target: Glc(b1-4)Glc
Procedure, shortened: as §1

Glc(b1-6)Glc = molecular target: Glc(b1-6)Glc
Procedure, shortened: as §1

GlcA(b1-3)Gal = molecular target: GlcA(b1-3)Gal
Procedure, shortened: as §1

GlcA(b1-3)GlcNAc = molecular target: GlcA(b1-3)GlcNAc
Procedure, shortened: as §1

GlcA(b1-6)Gal = molecular target: GlcA(b1-6)Gal
Procedure, shortened: as §1

[3] = molecular target: GlcNAc(a1-3)Gal(b1-4)GlcNAc
Procedure, shortened: as §1

[4] = molecular target: GlcNAc(a1-4)Gal(b1-3)GlcNAc
Procedure, shortened: as §1

[5] = molecular target: GlcNAc(a1-4)Gal(b1-4)GalNAc
Procedure, shortened: as §1

[6] = molecular target: GlcNAc(a1-4)Gal(b1-4)GlcNAc
Procedure, shortened: as §1

[7] = molecular target: GlcNAc(a1-4)Gal(b1-4)GlcNAc(b1-3)Gal(b1-4)Glc
Procedure, shortened: as §1

[8] = molecular target: GlcNAc(a1-4)Gal(b1-4)GlcNAc(b1-3)Gal(b1-4)GlcNAc
Procedure, shortened: as §1

[9] = molecular target: GlcNAc(a1-4)Gal(b1-4)GlcNAc(b1-3)Gal(b1-4)GlcNAc(b1-3)Gal(b1-4)GlcNAc
Procedure, shortened: as §1

[10] = molecular target: GlcNAc(a1-4)Gal(b1-4)GlcNAc(b1-3)Gal(b1-4)[Fuc(a1-3)]GlcNAc(b1-3)Gal(b1-4)[Fuc(a1-3)]GlcNAc
Procedure, shortened: as §1

[11] = molecular target: GlcNAc(a1-6)Gal(b1-4)GlcNAc
Procedure, shortened: as §1

[12] = molecular target: GlcNAc(b1-2)Gal(b1-3)GalNAc
Procedure, shortened: as §1

[13] = molecular target: GlcNAc(b1-2)Man(a1-3)[GlcNAc(b1-2)Man(a1-6)]Man(b1-4)GlcNAc(b1-4)GlcNAc
Procedure, shortened: as §1

[14] = molecular target: GlcNAc(b1-2)Man(a1-3)[GlcNAc(b1-2)Man(a1-6)]Man(b1-4)GlcNAc(b1-4)[Fuc(a1-6)]GlcNAc
Procedure, shortened: as §1

[15] = molecular target: GlcNAc(b1-2)Man(a1-3)[GlcNAc(b1-4)][GlcNAc(b1-2)Man(a1-6)]Man(b1-4)GlcNAc(b1-4)GlcNAc
Procedure, shortened: as §1

[16] = molecular target: GlcNAc(b1-2)[GlcNAc(b1-4)]Man(a1-3)[GlcNAc(b1-2)Man(a1-6)]Man(b1-4)GlcNAc(b1-4)GlcNAc
Procedure, shortened: as §1

[17] = molecular target: GlcNAc(b1-2)[GlcNAc(b1-4)]Man(a1-3)[GlcNAc(b1-4)][GlcNAc(b1-2)Man(a1-6)]Man(b1-4)GlcNAc(b1-4)GlcNAc
Procedure, shortened: as §1

[18] = molecular target: GlcNAc(b1-2)[GlcNAc(b1-4)]Man(a1-3)[GlcNAc(b1-4)][GlcNAc(b1-2)[GlcNAc(b1-6)]Man(a1-6)]Man(b1-4)GlcNAc(b1-4)GlcNAc
Procedure, shortened: as §1

[19] = molecular target: GlcNAc(b1-2)[GlcNAc(b1-4)]Man(a1-3)[GlcNAc(b1-4)][GlcNAc(b1-2)[GlcNAc(b1-6)]Man(a1-6)]Man(b1-4)GlcNAc(b1-4)[Fuc(a1-6)]GlcNAc
Procedure, shortened: as §1

[20] = molecular target: GlcNAc(b1-2)[GlcNAc(b1-6)]Man(a1-6)[GlcNAc(b1-2)Man(a1-3)]Man(b1-4)GlcNAc(b1-4)GlcNAc
Procedure, shortened: as §1

[21] = molecular target: GlcNAc(b1-2)[GlcNAc(b1-6)]Man(a1-6)[GlcNAc(b1-2)Man(a1-3)]Man(b1-4)GlcNAc(b1-4)[Fuc(a1-6)]GlcNAc
Procedure, shortened: as §1

[22] = molecular target: GlcNAc(b1-2)[GlcNAc(b1-6)]Man(a1-6)[GlcNAc(b1-2)Man(a1-3)][GlcNAc(b1-4)]Man(b1-4)GlcNAc(b1-4)GlcNAc
Procedure, shortened: as §1

GlcNAc(b1-3)Gal = molecular target: GlcNAc(b1-3)Gal
Procedure, shortened: as §1

[23] = molecular target: GlcNAc(b1-3)Gal(b1-3)GalNAc
Procedure, shortened: as §1

GlcNAc(b1-3)Gal(b1-4)Glc = molecular target: GlcNAc(b1-3)Gal(b1-4)Glc
Procedure, shortened: as §1

[24] = molecular target: GlcNAc(b1-3)Gal(b1-4)GlcNAc
Procedure, shortened: as §1

[25] = molecular target: GlcNAc(b1-3)Gal(b1-4)GlcNAc(b1-3)Gal(b1-4)GlcNAc
Procedure, shortened: as §1

GlcNAc(b1-3)GalNAc = molecular target: GlcNAc(b1-3)GalNAc
Procedure, shortened: as §1

GlcNAc(b1-3)Man = molecular target: GlcNAc(b1-3)Man
Procedure, shortened: as §1

[26] = molecular target: GlcNAc(b1-3)[GlcNAc(b1-4)][GlcNAc(b1-6)]GlcNAc
Procedure, shortened: as §1

[27] = molecular target: GlcNAc(b1-3)[GlcNAc(b1-6)]Gal(b1-4)GlcNAc
Procedure, shortened: as §1

[28] = molecular target: GlcNAc(b1-3)[GlcNAc(b1-6)]GalNAc
Procedure, shortened: as §1

[29] = molecular target: GlcNAc(b1-4)Gal(b1-4)GlcNAc
Procedure, shortened: as §1

GlcNAc(b1-4)GlcNAc = molecular target: GlcNAc(b1-4)GlcNAc
Procedure, shortened: as §1

[30] = molecular target: GlcNAc(b1-4)GlcNAc(b1-4)GlcNAc
Procedure, shortened: as §1

[31] = molecular target: GlcNAc(b1-4)GlcNAc(b1-4)GlcNAc(b1-4)GlcNAc(b1-4)GlcNAc
Procedure, shortened: as §1

[32] = molecular target: GlcNAc(b1-4)GlcNAc(b1-4)GlcNAc(b1-4)GlcNAc(b1-4)GlcNAc(b1-4)GlcNAc
Procedure, shortened: as §1

[33] = molecular target: GlcNAc(b1-4)[GlcNAc(b1-6)]GalNAc
Procedure, shortened: as §1

B1: SalT (Orysata sativa) (protein)
chain: MTLVKIGLWGGNGGSAQDISVPPKKLLGVTIYSSDAIRSIAFNYIGVDGQEYAIGPWGGGEGTSTEIKLGSSEHIKEISGTHGPVYDLADIVTYLKIVTSANNTYEAGVPNGKEFSIPLQDSGHVVGFFGRSGTLIDAIGIYVHPILEQKLISEEDLNSAVDHHHHHH
- glycan array binding signal (z-score) (Glc(a1-4)Glc): -0.308
- glycan array binding signal (z-score) [1]: -0.309
- glycan array binding signal (z-score) (Glc(a1-6)Glc(a1-6)Glc): -0.308
- glycan array binding signal (z-score) [2]: -0.309
- glycan array binding signal (z-score) (Glc(b1-4)Glc): -0.309
- glycan array binding signal (z-score) (Glc(b1-6)Glc): -0.31
- glycan array binding signal (z-score) (GlcA(b1-3)Gal): -0.309
- glycan array binding signal (z-score) (GlcA(b1-3)GlcNAc): -0.306
- glycan array binding signal (z-score) (GlcA(b1-6)Gal): -0.308
- glycan array binding signal (z-score) [3]: -0.308
- glycan array binding signal (z-score) [4]: -0.307
- glycan array binding signal (z-score) [5]: -0.302
- glycan array binding signal (z-score) [6]: -0.301
- glycan array binding signal (z-score) [7]: -0.304
- glycan array binding signal (z-score) [8]: -0.297
- glycan array binding signal (z-score) [9]: -0.307
- glycan array binding signal (z-score) [10]: -0.206
- glycan array binding signal (z-score) [11]: -0.301
- glycan array binding signal (z-score) [12]: -0.302
- glycan array binding signal (z-score) [13]: 4.06
- glycan array binding signal (z-score) [14]: 0.913
- glycan array binding signal (z-score) [15]: -0.002
- glycan array binding signal (z-score) [16]: -0.303
- glycan array binding signal (z-score) [17]: -0.307
- glycan array binding signal (z-score) [18]: -0.311
- glycan array binding signal (z-score) [19]: -0.308
- glycan array binding signal (z-score) [20]: 2.4
- glycan array binding signal (z-score) [21]: 0.996
- glycan array binding signal (z-score) [22]: -0.04
- glycan array binding signal (z-score) (GlcNAc(b1-3)Gal): -0.308
- glycan array binding signal (z-score) [23]: -0.307
- glycan array binding signal (z-score) (GlcNAc(b1-3)Gal(b1-4)Glc): -0.308
- glycan array binding signal (z-score) [24]: -0.305
- glycan array binding signal (z-score) [25]: -0.305
- glycan array binding signal (z-score) (GlcNAc(b1-3)GalNAc): -0.309
- glycan array binding signal (z-score) (GlcNAc(b1-3)Man): -0.302
- glycan array binding signal (z-score) [26]: -0.308
- glycan array binding signal (z-score) [27]: -0.31
- glycan array binding signal (z-score) [28]: -0.309
- glycan array binding signal (z-score) [29]: -0.307
- glycan array binding signal (z-score) (GlcNAc(b1-4)GlcNAc): -0.308
- glycan array binding signal (z-score) [30]: -0.311
- glycan array binding signal (z-score) [31]: -0.309
- glycan array binding signal (z-score) [32]: -0.311
- glycan array binding signal (z-score) [33]: -0.309
